Reference: the BET-seq Pho4 binding data (Le et al. 2018)
The list shows a part of the results. The energies were worked out here from pooled read counts, against the library average; single values are noisy.

Molecular target: T1, Pho4 (S. cerevisiae) (UniProt P07270)
T1 sequence: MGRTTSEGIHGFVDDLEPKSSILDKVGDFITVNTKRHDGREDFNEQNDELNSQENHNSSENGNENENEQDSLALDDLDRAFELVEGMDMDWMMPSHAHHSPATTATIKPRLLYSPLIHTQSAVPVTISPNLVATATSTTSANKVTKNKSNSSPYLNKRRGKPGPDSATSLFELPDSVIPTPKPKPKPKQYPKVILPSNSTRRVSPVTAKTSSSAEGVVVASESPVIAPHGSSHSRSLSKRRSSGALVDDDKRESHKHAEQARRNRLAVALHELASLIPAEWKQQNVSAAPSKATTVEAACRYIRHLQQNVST
Test: relative binding free energy (BET-seq); higher = weaker binding
Conditions: reference: library average

Sequence | relative binding free energy [kcal/mol]
AGTACCACGTGCGGGG | -0.18
CGAGGCACGTGGGGCG | -0.21
TGTGTCACGTGAGGAT | 0.32
GGGCTCACGTGAGTCG | 0.43
CATTGCACGTGGTAGT | -0.16
TTGGGCACGTGCTGGC | -0.14
GTCGTCACGTGGAGGG | 0.05
TGTGACACGTGTTAAT | 0.03
TAATTCACGTGTGGTC | 0.38
CTTAACACGTGGGAAG | 0.19
AGGGTCACGTGTTGCG | 0.06
AATTTCACGTGAAAGG | 0.24
GGTCTCACGTGTAGCG | 0.21
ATCGGCACGTGAGTTT | 0.18
AAGGACACGTGTGTAG | -0.02
GGCAACACGTGAGAGG | 0.45
AAGGACACGTGGGGGG | -0.05
TTTATCACGTGCCTGG | 0.07
TTATTCACGTGAGGTA | 0.37
ACGTGCACGTGGGTTT | -0.06
TTAGGCACGTGGTAGG | -0.16
GTTGGCACGTGTAAGG | 0.05
TAGGGCACGTGCGGGT | -0.09

Sequence | relative binding free energy [kcal/mol]
TTGAACACGTGCGTTG | 0.06
ATGTACACGTGTAGCG | 0.2
CTAAGCACGTGGTATG | -0.23
GTTGGCACGTGGAACG | 0.1
TCATTCACGTGCTTGT | 0.2
TTTTACACGTGTCATA | 0.16
TTGGTCACGTGTGCAA | 0.11
TCGTGCACGTGCGTTT | -0.12
ATATGCACGTGTAATT | -0.02
TTGTGCACGTGTCAGC | -0.07
GGTAACACGTGTTAGC | 0.1
TTTGGCACGTGGGTAC | -0.19
GGATTCACGTGGGTGC | 0.22
GTCGGCACGTGGAGAT | 0.08
CATGACACGTGGGTAG | -0.15
TTTATCACGTGTCGAT | 0.24
TTTTACACGTGGTTCA | 0
TTGTCCACGTGGATGG | 0.05
GGTGGCACGTGGTACG | -0.17
TAGGTCACGTGCTTGT | 0.09
GGAGTCACGTGGCTGG | 0.13
TGTGGCACGTGGGTCC | -0.18
GGCGCCACGTGGGGTT | -0.24

Sequence | relative binding free energy [kcal/mol]
ACTGTCACGTGTCGGG | -0.03
GGAGCCACGTGGAGTG | 0.03
TTGAACACGTGGATGA | 0.06
ATTTGCACGTGTGTCT | 0.07
GAATTCACGTGGGGAT | 0.17
TGAATCACGTGTCTGT | 0.11
AGGTTCACGTGTTCTT | 0.15
GGGAACACGTGCGGAG | 0.08
GGTGGCACGTGGATGC | -0.22
CTCGGCACGTGGTGAG | -0.13
AAGGTCACGTGTCGAT | 0.07
AGGGACACGTGGGGGG | -0.15
GGTCTCACGTGTGGTC | 0.26
GCGCGCACGTGAGGGT | 0.14
TCTTGCACGTGGGATA | -0.04
TTTCGCACGTGCTGTT | -0.06
TTTGGCACGTGCTCTT | -0.24
TGAGGCACGTGTTATC | 0.02
AAGATCACGTGGGGGG | 0.06
TTTAGCACGTGTGGAC | 0.07
TGTTTCACGTGATAGG | 0.33
TGACGCACGTGGGGCG | -0.22
TATGGCACGTGTTATT | -0.03

Sequence | relative binding free energy [kcal/mol]
GATTACACGTGGGGCG | 0
GGTTACACGTGATGCG | 0.38
TATTGCACGTGACTTG | 0.08
GGGGGCACGTGGATTT | 0.02
GTGGACACGTGGATGT | 0.12
TGTTCCACGTGGTGAA | -0.07
AGTGTCACGTGGGGCC | -0.03
TTGCTCACGTGTGCTA | 0.24
GTTCGCACGTGTTTAT | 0.04
ACATGCACGTGTTAGT | -0.06
TGGAGCACGTGATTGA | 0.11
CAGATCACGTGAGGTT | 0.34
ATGAGCACGTGAGAGT | -0.02
AGGAGCACGTGTCTTG | -0.12
GTATACACGTGGAAGG | 0.05
TTTAGCACGTGTCAAT | 0.08
GAGTGCACGTGGGCGC | -0.09
TGGACCACGTGTTAGT | 0.08
GTGGCCACGTGCTGTG | -0.13
CTGAACACGTGGTCGG | -0.01
TGGGGCACGTGAGAGC | 0
ACGTGCACGTGAGATT | 0.18
TGAGGCACGTGGTAAG | -0.21

Sequence | relative binding free energy [kcal/mol]
GTAGACACGTGGAGTG | -0.07
CTATTCACGTGTGTTG | 0.08
TTTCGCACGTGTATGG | -0.04
CGTTTCACGTGGAGGT | 0.19
ATGTACACGTGGGATA | -0.2
AGGCGCACGTGGGTAA | -0.18
AGTTTCACGTGCTGTA | 0.22
GGGGGCACGTGTAAAG | 0.12
AGTTTCACGTGTAAGA | 0.46
TCATGCACGTGGGTAT | -0.28
GCGTGCACGTGATTTT | 0.12
TTTAGCACGTGCAGTT | 0.02
AAAGGCACGTGGGTTA | -0.31
TTTTCCACGTGAGAGG | 0.32
CTGGTCACGTGGGAAA | 0.22
GGGTCCACGTGTAGGT | 0.02
GGTTACACGTGGTCTG | 0.16
CTGGCCACGTGTGGGG | -0.05
GCTGGCACGTGTGGGC | -0.12
TATTTCACGTGAGTGT | 0.39
GGTAGCACGTGGGGAC | -0.16
TGTCTCACGTGCGTGT | 0.1
AGCGTCACGTGTTGGA | -0.08
